Some of the results follow.
Target: T1, OsWOX13 (Oryza sativa, UniProt Q5QMM3 1-267)
T1 sequence: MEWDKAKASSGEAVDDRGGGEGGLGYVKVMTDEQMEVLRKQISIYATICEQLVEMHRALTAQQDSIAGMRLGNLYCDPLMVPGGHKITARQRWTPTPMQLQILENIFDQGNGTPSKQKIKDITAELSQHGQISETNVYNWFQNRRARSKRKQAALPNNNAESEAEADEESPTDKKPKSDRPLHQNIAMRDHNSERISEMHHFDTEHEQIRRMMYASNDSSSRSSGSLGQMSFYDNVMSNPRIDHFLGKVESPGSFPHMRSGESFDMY
Assay: protein-binding microarray (RPBM); PBS, 2% BSA, 51.3 ng/ul salmon testes DNA, 50 uM zinc acetate, 200 nM TF, 25 C, 1 h; high values mean tight binding
Conditions: protein: recombinant; tags: N-terminal polyhistidine and DsRed monomer fusion (pET32a); label: CyDye5-dUTP incorporated in the synthesized complementary strand; 3' TTTTT single-stranded linker to array surface; dsDNA, one strand shown
How it was run: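 Ni–NTA purification followed expression in E. coli BL21-CodonPlus of transcription factors fused N-terminally to a polyhistidine tag and DsRed. At 200 nM in PBS with 2% BSA, salmon testes DNA and 50 µM zinc acetate, the protein was incubated for 1 h at 25 °C with a custom Agilent array that had been primer-extended with Cy5-dUTP and blocked with 2% BSA. After washing, the array was read on an Axon 4000B scanner. The binding signal is per-feature fluorescence intensity in arbitrary units.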

Sequence | binding signal
TATAATTTTACTAGCTATCATCATGTTCAAAATTACATTCCGGAGTCACCTAGTGCAG | 6430 fluorescence intensity (a.u.)
TAAATTTTAATTTTCTGATTGGTATGCCACGTTAGTGAAACGGAGTCACCTAGTGCAG | 27700 fluorescence intensity (a.u.)
CAAGTTTAATTAACATCCCTTAAACCGTAATATCAAGAATCGGAGTCACCTAGTGCAG | 8360 fluorescence intensity (a.u.)
CAACATAATTACTACTACTAAGATAGTCCTATTTTCTTTTCGGAGTCACCTAGTGCAG | 5760 fluorescence intensity (a.u.)
TCTTATGTCAATTAGACCAAAGGGATGGATATTAAATGATCGGAGTCACCTAGTGCAG | 13000 fluorescence intensity (a.u.)
GTCTGATGAAACTGTTGGCTGAATGGCTCCGGACCCACGACGGAGTCACCTAGTGCAG | 7120 fluorescence intensity (a.u.)
GCAGTAATTAAGTAGCTAGCAGAGGGGCAGAGAGAGAGAGCGGAGTCACCTAGTGCAG | 10100 fluorescence intensity (a.u.)
TATATATATATATATATATATAGAGGAACTGGATATTTGGCGGAGTCACCTAGTGCAG | 6430 fluorescence intensity (a.u.)
AGCTTTTCAGACTGAAAATGTAATAGACAACCTTATCAGACGGAGTCACCTAGTGCAG | 3810 fluorescence intensity (a.u.)
GATGTTAAATTTGTAGTTTTATAATACGATACCTTTAAATCGGAGTCACCTAGTGCAG | 4340 fluorescence intensity (a.u.)
ACTGATTTTAAAACTGAGGTCGAGGTCGAGGCAGGGCCTACGGAGTCACCTAGTGCAG | 16000 fluorescence intensity (a.u.)
CTACTTGATTAATCATAATAATATACTCAATCTTTGTTTTCGGAGTCACCTAGTGCAG | 44200 fluorescence intensity (a.u.)
CTAATATATTGACGTGCAATTCTTTTACGTCTTCGCGAAACGGAGTCACCTAGTGCAG | 6160 fluorescence intensity (a.u.)
TAGATTACTGATAAAACCTATTACATAACCCCTGGGCTATCGGAGTCACCTAGTGCAG | 3810 fluorescence intensity (a.u.)
ATATATAAATTGTATGATTCTCTCTATTATAATCTTTCCACGGAGTCACCTAGTGCAG | 4350 fluorescence intensity (a.u.)
CTGATTGTCTGCAGTAATGTAGACGACAGTTACTGCTCATCGGAGTCACCTAGTGCAG | 32000 fluorescence intensity (a.u.)
ATATCATCAATTTATCACCAATCTGAATTTATTTTCCACCCGGAGTCACCTAGTGCAG | 12500 fluorescence intensity (a.u.)
ATTTCTTAATGAAAGGAGAACTAATTAGGTCGCATGCGCCCGGAGTCACCTAGTGCAG | 3290 fluorescence intensity (a.u.)
TTGATTCGAATTGATGTCATTAGCACCTATAACTTCCGACCGGAGTCACCTAGTGCAG | 14000 fluorescence intensity (a.u.)
AACTGATTTGATGTGAATTTCTTTTATTCCAATTGAACATCGGAGTCACCTAGTGCAG | 50900 fluorescence intensity (a.u.)
TTGTATAAATTGCTATTAGATTGGCTATATATGAATTAGACGGAGTCACCTAGTGCAG | 37500 fluorescence intensity (a.u.)
GGTTTATTTGGGACAGGTGGGAGGTTGGTAAGTGAGAATACGGAGTCACCTAGTGCAG | 3500 fluorescence intensity (a.u.)
AGCAAAATTGATTGCTAATCTTCGGTGTCCAGCAGAGCCCCGGAGTCACCTAGTGCAG | 64900 fluorescence intensity (a.u.)
AGGATTGACTGGGCGCTGGAGAGGATTGACTGGTTAGGGTCGGAGTCACCTAGTGCAG | 49300 fluorescence intensity (a.u.)
TATAGATGGACTAAATCAACGTGCCACGTCAATGAAACTACGGAGTCACCTAGTGCAG | 4380 fluorescence intensity (a.u.)
AATAATTATTTCTATAATCCCATGAATAGTTCGGTAAGAACGGAGTCACCTAGTGCAG | 19500 fluorescence intensity (a.u.)
ATGAGGTTATTGATTTGCTGAATAAACAATTTTATGGTGACGGAGTCACCTAGTGCAG | 3750 fluorescence intensity (a.u.)

Sequence | binding signal
AATATCATAATTAATAGATACAATTGCCTAAACTTTATCTCGGAGTCACCTAGTGCAG | 13800 fluorescence intensity (a.u.)
GCTTCTCTAATTGTCAAATCCAAAACGTTTTATTTACTAACGGAGTCACCTAGTGCAG | 7600 fluorescence intensity (a.u.)
TTGGATCACTCAATAAATTTAATGCATGTAACCGATAGGACGGAGTCACCTAGTGCAG | 4770 fluorescence intensity (a.u.)
TCTTGATGAAACGAAAACATATGTGGTAACTCCACCCTCACGGAGTCACCTAGTGCAG | 4440 fluorescence intensity (a.u.)
ACCTAATATCAAATAATTAAAAGGGGTGAGATTTCGAATTCGGAGTCACCTAGTGCAG | 4590 fluorescence intensity (a.u.)
ATTTATTACTATAATTAAATAAATAATCTATTACTCTGTACGGAGTCACCTAGTGCAG | 8800 fluorescence intensity (a.u.)
TTTTCCAGTTGTTTAAATTAAATTAAACCCAAATCGATCCCGGAGTCACCTAGTGCAG | 6140 fluorescence intensity (a.u.)
TAGTTAATTACCACTCACACTGAAAAGAAGAAGAAAGCATCGGAGTCACCTAGTGCAG | 25300 fluorescence intensity (a.u.)
ATGTTGATTGGAGTCTGATAACTTGTCACTGGATGACATGCGGAGTCACCTAGTGCAG | 61700 fluorescence intensity (a.u.)
TTTAATGTAATTTTAGTATATAACAGATAGATTTAGAAGACGGAGTCACCTAGTGCAG | 15800 fluorescence intensity (a.u.)
TCCGTCTCTCACCTTCAATCAAACTTCCAAAATCTGAACCCGGAGTCACCTAGTGCAG | 4490 fluorescence intensity (a.u.)
ATAAATTGCAACAAAGTGGATAAACCAGTGGGTGATGAGACGGAGTCACCTAGTGCAG | 15000 fluorescence intensity (a.u.)
AGATGACATATCATGATAAGTTCTAAGATTTGGATATGCACGGAGTCACCTAGTGCAG | 3280 fluorescence intensity (a.u.)
TCACCAGCCAATCACGAACGGAAGCCGGTGCCGTCCCCTTCGGAGTCACCTAGTGCAG | 14600 fluorescence intensity (a.u.)
CTAGATTGATCGAAATCCGTCAAGTTCATGAACCGTTAAGCGGAGTCACCTAGTGCAG | 54400 fluorescence intensity (a.u.)
TCCTTTAATTATATAATAGATATTTGGAGGAACTAATCTCCGGAGTCACCTAGTGCAG | 24300 fluorescence intensity (a.u.)
TATCGATTAATTGATCATATATACTGTACTCCTGTATATCCGGAGTCACCTAGTGCAG | 33500 fluorescence intensity (a.u.)
ATAAATTTATAGAGTTCAAGAAAACTTAGATCCAGTGTTGCGGAGTCACCTAGTGCAG | 10600 fluorescence intensity (a.u.)
ACAAAACCAACTAATTAGGCAGGCAGCCATTTACCTCCATCGGAGTCACCTAGTGCAG | 5480 fluorescence intensity (a.u.)
TGTTAATTTGCAGAGCATGGTTGACTGTGAGTTCTTGATGCGGAGTCACCTAGTGCAG | 41700 fluorescence intensity (a.u.)
CACCATGATTGATTGCTCCATGCACACACATTGAGACACGCGGAGTCACCTAGTGCAG | 59700 fluorescence intensity (a.u.)
CTATAATTACCTGCATGGCCGTCTTTCTTCGCTCAAAACACGGAGTCACCTAGTGCAG | 9510 fluorescence intensity (a.u.)
AAGTAATTATGGGCCTTGCACACGAGGGGATAGTCCAAAGCGGAGTCACCTAGTGCAG | 5970 fluorescence intensity (a.u.)
GCGATTCAATCAGGAACAAGACACGAGAGAGGCGAAATGGCGGAGTCACCTAGTGCAG | 8290 fluorescence intensity (a.u.)
CTGGTAATTTCTAATCCGGTAATCCCTAATATTGGATTATCGGAGTCACCTAGTGCAG | 11600 fluorescence intensity (a.u.)
TCACCATTTTAATTTATTGTCCATGCGCCATGTAAGAGGACGGAGTCACCTAGTGCAG | 4250 fluorescence intensity (a.u.)
CAGGATTAAGTTGATTGATAGACAATAAATAATTATTTCTCGGAGTCACCTAGTGCAG | 27500 fluorescence intensity (a.u.)
